# Whole data set: some 81,000 sequences, median “one-hybrid fitness for binding NBS DNA” near -0.1, cut for the highest 2% near 0.36. Some of the results follow.
# B1: Caulobacter ParB omega fusion; a variant is named by its letters at X, in order, B8GW30 (parent)
# chain: MESVVVGEPGMSEGRRGLGRGLSALLGEVDAAPAQAPGEQLGGSREAPIEILQRNPDQPRRTFREEDLEDLSNSIREKGVLQPILVRPSPDTAGEYQIVAGERAWRAAQRAGLKTVPIMVRELDDLAVLEIGIIENVQRADLNVLEEALSYKVLMEKFERTQENIAQTIGKSXSHVANXMRLLXLPDEVQSYLVSGELTAXHARAIAAAADPVALAKQIIEGGLSVRETEALARKAPNLSAGKSKGGRPPRVKDTDTQALESDLSSVLGLDVSIDHRGSTGTLTITYATLEQLDDLCNRLTRGI
# Variants of: B1
# Experiment: one-hybrid fitness for binding NBS DNA (the Noc-binding site; scaled: cognate 1, non-cognate 0); higher = stronger binding
# Conditions: with NBS DNA site
# Outline: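 Values were rescaled so that cognate is 1 and non-cognate is 0. Each is a fitness, the log change in a variant's read ratio to wild type from Illumina reads of plasmids before and after selection, with three replicate libraries pooled and variants under 10 reads dropped. Selection of the Caulobacter ParB libraries, four specificity codons randomised, used E. coli USO with a HIS3 reporter, site 19 bp from the promoter, on M9-minus-histidine with 0.1 mM IPTG and 5 mM 3-AT for 48 hours at 37°C.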
row,Variant,one-hybrid fitness for binding NBS DNA
1,PPKH,≤ 0.2
2,PSQY,≤ 0.2
3,QWMS,≤ 0.2
4,AINT,≤ 0.2
5,KHAG,≤ 0.2
6,SSPE,≤ 0.2
7,LAWG,≤ 0.2
8,HEAE,≤ 0.2
9,YILQ,≤ 0.2
10,QLWL,≤ 0.2
11,RGPD,≤ 0.2
12,QLLM,≤ 0.2
13,VDTR,≤ 0.2
14,ACVV,≤ 0.2
15,FFSG,≤ 0.2
16,HEDV,≤ 0.2
17,QHGR,0.546
18,TAQY,≤ 0.2
19,HVYD,≤ 0.2
20,ARRK,≤ 0.2
21,IANI,≤ 0.2
22,EHGS,≤ 0.2
23,AAFV,≤ 0.2
24,ESTR,≤ 0.2

row,Variant,one-hybrid fitness for binding NBS DNA
1,RWEE,≤ 0.2
2,ENAL,≤ 0.2
3,MQLS,≤ 0.2
4,NVSE,≤ 0.2
5,FSTV,≤ 0.2
6,LAPN,≤ 0.2
7,YQTG,≤ 0.2
8,YNMT,≤ 0.2
9,WISV,≤ 0.2
10,DNPF,≤ 0.2
11,RMHY,≤ 0.2
12,LSIS,≤ 0.2
13,WKIM,≤ 0.2
14,AGFA,≤ 0.2
15,DKSS,≤ 0.2
16,RQRS,0.6
17,GHPD,≤ 0.2
18,KRQI,≤ 0.2
19,FTKS,≤ 0.2
20,DDWY,≤ 0.2
21,VFHC,≤ 0.2
22,RIYM,≤ 0.2
23,NWPF,≤ 0.2
24,NLTL,≤ 0.2

row,Variant,one-hybrid fitness for binding NBS DNA
1,ASLT,≤ 0.2
2,GAQC,≤ 0.2
3,GLTF,≤ 0.2
4,RICW,≤ 0.2
5,RHMR,0.368
6,YCKT,≤ 0.2
7,EEKR,≤ 0.2
8,RVVC,≤ 0.2
9,TKRM,≤ 0.2
10,RIPK,≤ 0.2
11,QDAY,≤ 0.2
12,YPWT,≤ 0.2
13,RMGG,≤ 0.2
14,KLLL,≤ 0.2
15,MQIT,≤ 0.2
16,VRGS,≤ 0.2
17,QNYG,≤ 0.2
18,LIIH,≤ 0.2
19,SFHS,≤ 0.2
20,RSKA,0.343
21,GPWR,≤ 0.2
22,DSLV,≤ 0.2
23,CNPG,≤ 0.2
24,PPKT,≤ 0.2

row,Variant,one-hybrid fitness for binding NBS DNA
1,PHPT,≤ 0.2
2,GTMC,≤ 0.2
3,QEVD,≤ 0.2
4,TTWI,≤ 0.2
5,FHFL,≤ 0.2
6,REVG,≤ 0.2
7,DAND,≤ 0.2
8,FCFS,≤ 0.2
9,TQDG,≤ 0.2
10,HVPE,≤ 0.2
11,KVHT,≤ 0.2
12,LFER,≤ 0.2
13,ACRV,≤ 0.2
14,CKAR,≤ 0.2
15,TFHQ,≤ 0.2
16,GWIP,≤ 0.2
17,CRKC,≤ 0.2
18,SIIL,≤ 0.2
19,QQAF,≤ 0.2
20,CDRR,≤ 0.2
21,CPLQ,≤ 0.2
22,LDPS,≤ 0.2
23,PLKH,≤ 0.2
24,GAVW,≤ 0.2

row,Variant,one-hybrid fitness for binding NBS DNA
1,WTPG,≤ 0.2
2,RCNM,≤ 0.2
3,DYKT,≤ 0.2
4,QYHF,≤ 0.2
5,WNVE,≤ 0.2
6,SQPG,≤ 0.2
7,QATG,≤ 0.2
8,GFQR,≤ 0.2
9,EYKV,≤ 0.2
10,TDCG,≤ 0.2
11,RYNQ,≤ 0.2
12,STGT,≤ 0.2
13,LGNW,≤ 0.2
14,HCRR,0.227
15,VMQT,≤ 0.2
16,PNYC,≤ 0.2
17,ETTT,≤ 0.2
18,QKSI,≤ 0.2
19,ARVG,≤ 0.2
20,VKRM,≤ 0.2
21,LYNV,≤ 0.2
22,SPVY,≤ 0.2
23,GKQC,≤ 0.2
24,SEGC,≤ 0.2

row,Variant,one-hybrid fitness for binding NBS DNA
1,VVVK,≤ 0.2
2,GNVS,≤ 0.2
3,GVFT,≤ 0.2
4,YGNR,≤ 0.2
5,QCGY,0.3
6,SYRV,≤ 0.2
7,LRAC,≤ 0.2
8,LTSA,≤ 0.2
9,FRLC,≤ 0.2
10,WNPV,≤ 0.2
11,NRQK,≤ 0.2
12,CETS,≤ 0.2
13,QGNI,≤ 0.2
14,RKDA,≤ 0.2
15,PQSG,≤ 0.2
16,RGMQ,≤ 0.2
17,RTHD,≤ 0.2
18,EDEG,≤ 0.2
19,RQYM,≤ 0.2
20,TRIV,≤ 0.2
21,RRWR,0.732
22,TVSG,≤ 0.2
23,VLPA,≤ 0.2
24,QYTI,≤ 0.2

row,Variant,one-hybrid fitness for binding NBS DNA
1,DHKC,≤ 0.2
2,FANT,≤ 0.2
3,TAWT,≤ 0.2
4,KHRM,≤ 0.2
5,SIDT,≤ 0.2
6,LLLR,≤ 0.2
7,GHDY,≤ 0.2
8,QPVG,≤ 0.2
9,HLES,≤ 0.2
10,RNSF,≤ 0.2
11,DAME,≤ 0.2
12,SHDP,≤ 0.2
13,AFGF,≤ 0.2
14,NACN,≤ 0.2
15,VQLS,≤ 0.2
16,NHQG,≤ 0.2
17,HLAL,≤ 0.2
18,VQTV,≤ 0.2
19,KGKL,≤ 0.2
20,AQVF,≤ 0.2
21,VVTD,≤ 0.2
22,AFHF,≤ 0.2
23,HLHC,≤ 0.2
24,FCDS,≤ 0.2

row,Variant,one-hybrid fitness for binding NBS DNA
1,SLDW,≤ 0.2
2,PGYC,≤ 0.2
3,RHRE,≤ 0.2
4,SWLV,≤ 0.2
5,QTTG,≤ 0.2
6,FSYN,≤ 0.2
7,LDVV,≤ 0.2
8,FVDV,≤ 0.2
9,HLDP,≤ 0.2
10,CTPE,≤ 0.2
11,TNIN,≤ 0.2
12,LQLR,≤ 0.2
13,HVHY,≤ 0.2
14,IKVA,≤ 0.2
15,AHQC,≤ 0.2
16,QQYI,≤ 0.2
17,APMP,≤ 0.2
18,RDHM,≤ 0.2
19,HVSD,≤ 0.2
20,RYSE,≤ 0.2
21,RWMS,≤ 0.2
22,DPWF,≤ 0.2
23,LFYY,≤ 0.2
24,ILFD,≤ 0.2

row,Variant,one-hybrid fitness for binding NBS DNA
1,HPYC,≤ 0.2
2,MLIT,≤ 0.2
3,ETAF,≤ 0.2
4,PCRM,≤ 0.2
5,RKLY,≤ 0.2
6,CSSL,≤ 0.2
7,TKWK,≤ 0.2
8,ADYS,≤ 0.2
9,PGCG,≤ 0.2
10,PHVP,≤ 0.2
11,YQQL,≤ 0.2
12,VMLT,≤ 0.2
13,HAAF,≤ 0.2
14,AKQS,≤ 0.2
15,FANV,≤ 0.2
16,HGEG,≤ 0.2
17,CLFT,≤ 0.2
18,CTSS,≤ 0.2
19,SHLF,≤ 0.2
20,AEVC,≤ 0.2
21,RPIC,≤ 0.2
22,LDCR,≤ 0.2
23,SNSP,≤ 0.2
24,PVPT,≤ 0.2

row,Variant,one-hybrid fitness for binding NBS DNA
1,RQSM,≤ 0.2
2,DLVL,≤ 0.2
3,HYNC,≤ 0.2
4,IAKC,≤ 0.2
5,RFFS,≤ 0.2
6,KSLM,≤ 0.2
7,WHTT,≤ 0.2
8,QLEE,≤ 0.2
9,QCRW,0.371
10,SITC,≤ 0.2
11,TRRT,0.526
12,HYLT,≤ 0.2
13,DHHS,≤ 0.2
14,PLQV,≤ 0.2
15,LHEE,≤ 0.2
16,IPNY,≤ 0.2
17,MNMT,≤ 0.2
18,RPAF,≤ 0.2
19,DQPG,≤ 0.2
20,RYPH,≤ 0.2
21,ADQW,≤ 0.2
22,QSQG,≤ 0.2
23,YTPF,≤ 0.2
24,HEYW,≤ 0.2

row,Variant,one-hybrid fitness for binding NBS DNA
1,QGPC,≤ 0.2
2,INRY,≤ 0.2
3,VRMF,≤ 0.2
4,SSEV,≤ 0.2
5,QFRI,≤ 0.2
6,KLHG,≤ 0.2
7,RRRG,0.497
8,VMYY,≤ 0.2
9,QQMV,≤ 0.2
10,LEFR,≤ 0.2
11,PRSN,≤ 0.2
12,QMLE,≤ 0.2
13,RFAC,≤ 0.2
14,RTFH,≤ 0.2
15,VIFT,≤ 0.2
16,LICG,≤ 0.2
17,KRDM,≤ 0.2
18,EWQP,≤ 0.2
19,GRSG,≤ 0.2
20,SITN,≤ 0.2
21,IIHR,≤ 0.2
22,HPDW,≤ 0.2
23,RVNR,0.55
24,SWDR,≤ 0.2

row,Variant,one-hybrid fitness for binding NBS DNA
1,HRTF,≤ 0.2
2,GLTV,≤ 0.2
3,VVEP,≤ 0.2
4,QYRH,0.541
5,NDYD,≤ 0.2
6,HGAA,≤ 0.2
7,DESE,≤ 0.2
8,AQAA,≤ 0.2
9,GRDK,≤ 0.2
10,HFNR,≤ 0.2
11,VAYA,≤ 0.2
12,SHNH,≤ 0.2
13,RYLN,≤ 0.2
14,KIQG,≤ 0.2
15,LPCI,≤ 0.2
16,GDHS,≤ 0.2
17,WLAT,≤ 0.2
18,RHDP,≤ 0.2
19,SDSA,≤ 0.2
20,RPAM,≤ 0.2
21,LKER,≤ 0.2
22,PLHI,≤ 0.2
23,DNTS,≤ 0.2
24,YMNS,≤ 0.2

row,Variant,one-hybrid fitness for binding NBS DNA
1,HTAH,≤ 0.2
2,TGYC,≤ 0.2
3,RNGF,≤ 0.2
4,DLLY,≤ 0.2
5,DTWD,≤ 0.2
6,RNLW,≤ 0.2
7,SMHQ,≤ 0.2
8,RPSS,≤ 0.2
9,LSIG,≤ 0.2
10,QLLA,≤ 0.2
11,RPAT,≤ 0.2
12,MLDL,≤ 0.2
13,PGER,≤ 0.2
14,MKAG,≤ 0.2
15,EVLW,≤ 0.2
16,DQTY,≤ 0.2
17,MVEC,0.453
18,PETI,≤ 0.2

# — a collection of fitness landscapes (doi:10.1016/j.celrep.2020.107928)
